PubChem BioAssay AID504339 (National Center for Advancing Translational Sciences (NCATS), 2011)
“And” between values parts separate entries of the source, which are not always exact repeats. Equal entries are not always repeated. The whole screen tested about 390,000 compounds, of which about 17,000 (4.4%) were called active. This list was built around the results that the source calls inconclusive (neither active nor inactive); the mix of calls is not that of the screen. The call rests on the fitted dose curve; in most records, active means well fitted inhibition curve with a large enough effect; inconclusive means small, poorly fitted or top-dose-only effect; inactive means no such curve, though single readings can be large or run the other way. Potencies of inconclusive entries are doubtful fits and often do not repeat.

Target: Lysine-specific demethylase 4A (Homo sapiens) (UniProt O75164)
Test: qHTS Assay for Inhibitors of JMJD2A-Tudor Domain; further: nearly all actives have a fitted effect of over 50% in size
Conditions: AlphaScreen JMJD2A-Tudor / H3K4me3 peptide binding; series mostly up to 114 µM
Potency means the concentration at half of the fitted maximal effect; tags describe the fitted curve by direction and shape.

Chain of UniProt O75164 (O75164 whole entry, looked up, the tested form may be a part): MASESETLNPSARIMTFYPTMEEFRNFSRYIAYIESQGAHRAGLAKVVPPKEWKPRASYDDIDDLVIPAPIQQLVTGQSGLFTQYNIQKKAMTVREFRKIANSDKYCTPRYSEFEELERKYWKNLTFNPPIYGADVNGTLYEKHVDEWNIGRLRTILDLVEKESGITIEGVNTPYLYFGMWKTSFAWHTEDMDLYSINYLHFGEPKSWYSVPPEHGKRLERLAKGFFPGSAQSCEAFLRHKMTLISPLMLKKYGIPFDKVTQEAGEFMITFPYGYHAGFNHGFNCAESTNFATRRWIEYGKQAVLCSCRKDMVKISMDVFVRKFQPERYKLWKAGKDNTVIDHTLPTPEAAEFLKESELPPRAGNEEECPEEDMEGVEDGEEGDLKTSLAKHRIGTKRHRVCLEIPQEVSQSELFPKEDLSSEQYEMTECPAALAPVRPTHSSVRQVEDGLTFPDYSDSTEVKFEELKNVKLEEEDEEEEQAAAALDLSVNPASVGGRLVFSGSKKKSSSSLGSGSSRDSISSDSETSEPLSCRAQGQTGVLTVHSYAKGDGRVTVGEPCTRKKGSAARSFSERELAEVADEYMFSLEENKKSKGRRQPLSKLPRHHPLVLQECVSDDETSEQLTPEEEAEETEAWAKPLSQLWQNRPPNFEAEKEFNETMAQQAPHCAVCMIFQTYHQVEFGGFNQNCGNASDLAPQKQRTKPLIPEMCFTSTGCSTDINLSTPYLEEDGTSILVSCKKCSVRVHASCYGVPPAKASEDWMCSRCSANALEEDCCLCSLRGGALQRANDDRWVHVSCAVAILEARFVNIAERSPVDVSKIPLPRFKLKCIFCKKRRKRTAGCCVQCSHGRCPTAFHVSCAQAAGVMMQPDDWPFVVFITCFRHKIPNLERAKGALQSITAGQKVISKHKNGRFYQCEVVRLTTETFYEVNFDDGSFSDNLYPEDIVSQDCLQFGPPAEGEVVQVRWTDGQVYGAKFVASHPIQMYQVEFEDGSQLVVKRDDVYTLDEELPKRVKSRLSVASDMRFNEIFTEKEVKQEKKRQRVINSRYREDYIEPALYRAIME

Compound	Potency
CCNC(=S)N(CCc1c(C)[nH]c2ccccc12)Cc1cccnc1	inconclusive: 56.2 µM [inhibitor, partial curve]
CC1(C)Cc2c(cnn2-c2ccccc2)C(=O)/C1=N\NC(=O)c1ccccc1O	inconclusive: 50.1 µM [inhibitor, partial curve]
CN1CCCN(Cc2ccccc2Br)CC1	active: 0.891 µM
COc1cc(C(CCN2CCOCC2)c2c(OC)cc(OC)c3c2OC(=O)CC3c2ccc(N(C)C)cc2)cc(OC)c1OC (stereo not given)	active: 39.8 µM and active: 28.2 µM
Cc1cccc(N2CCN(CCCNC(=O)C3CCCN(c4ncnc5c4nc4n5CCCCC4)C3)CC2C)c1 (stereo not given)	inconclusive: 35.5 µM [inhibitor, partial curve, poor fit]
C#CCOC(=O)C(NC(=O)c1ccccc1)=C1CCCCC1	inactive
COCC(=O)Nc1nnc(SCC(=O)N2CCCCC2)s1	inactive
COc1ccc(C2CC(=O)c3cc(-c4nc(-c5cccc([N+](=O)[O-])c5)cs4)c(=O)n(-c4ccc(C)c(C)c4)c3C2)cc1 (stereo not given)	inactive
CCCN1C(=O)/C(=C/c2nc3ccccc3c(=O)[nH]2)c2ccccc21	inconclusive: 63.1 µM [inhibitor, single point]
Cc1cc(C)cc(C(=O)NCC(=O)OCC(=O)NCc2ccco2)c1	inconclusive: 89.1 µM [inhibitor, partial curve, poor fit]
CO/N=C/C(=N\Nc1ccc(OC)cc1)C(=O)c1ccc(OC)cc1	inconclusive: 10 µM [inhibitor, partial curve]
Cc1ccc(-c2nnc(Nc3ccc(Br)cc3)c3ccccc23)cc1S(=O)(=O)N1CCN(C)CC1	inconclusive: 20 µM [inhibitor, full curve, poor fit]
COc1cc([N+](=O)[O-])cc(/C=N/NC(=O)c2ccc(C)nc2)c1O	inconclusive: 70.8 µM [inhibitor, single point]
NCCCn1c(C(=O)c2cc(Cl)c(N)c(Cl)c2)c2ccc([N+](=O)[O-])cc2[n+]1[O-]	inconclusive: 44.7 µM [inhibitor, partial curve]
c1ccc(-c2ccccc2OCCN2CCOCC2)cc1	active: 14.1 µM
Cc1ccc(O)c(N=Nc2nccs2)c1	active: 35.5 µM
CC(C)c1cc(C(=O)O)on1	inconclusive: 100 µM [inhibitor, single point]
C=C(C)COc1ccc(-c2[nH]ncc2-c2ccccc2OC)c(O)c1	inconclusive: 79.4 µM [inhibitor, partial curve]
COC(=O)C1CCN(C(=O)CCCOc2ccccc2)CC1	inactive
Cn1c(SCc2n[nH]c(=S)n2-c2ccccc2)nnc1-c1ccccc1	active: 17.8 µM
O=[N+]([O-])c1cccnc1Oc1ccc(OCc2ccccc2)cc1	inactive
CCN(CC)c1ccc(NC(=O)/C=C/c2cc(Br)ccc2OC)cc1	active: 3.98 µM
CCN(CC)C(=O)c1sc2[nH]c(=S)n(-c3ccccc3)c(=O)c2c1C	inconclusive: 89.1 µM [inhibitor, single point]
CSc1ccc(CCNC(=O)C2CCCN(c3ncnc4c3nc3n4CCCCC3)C2)cc1 (stereo not given)	inconclusive: 79.4 µM [inhibitor, partial curve]

Compound	Potency
CC(=O)N1c2c(cc(Br)cc2S(=O)(=O)N2CCN(C(=O)c3ccco3)CC2)CC1C (stereo not given)	active: 22.4 µM
COc1ccc(C(CCN2CCOCC2)c2c(OC)cc(OC)c3c(-c4ccccc4)cc(=O)oc23)cc1 (stereo not given)	inconclusive: 44.7 µM [inhibitor, partial curve]
CCC1CSC(Nc2ccc(C(=O)/C=C/c3ccc(OC)c(OC)c3)cc2)=N1 (stereo not given)	inconclusive: 50.1 µM [inhibitor, partial curve]
Cc1ccc(N)cc1S(=O)(=O)N(C)C	inactive
Oc1c(N=Nc2ccc(F)cc2)ccc2ccccc12	active: 2.51 µM
CCOC(=O)c1oc2ccccc2c1NC(=O)C(C)(C)C	inactive
CCc1ccccc1NC(=O)Cn1ccn(-c2cc(C)cc(C)c2)c(=O)c1=O	inactive
COc1ccccc1NC(=O)COc1ccc(C(=O)OCC(=O)NC(C)(C)C)cc1OC	inconclusive: 100 µM [inhibitor, partial curve]
Cc1nn(S(=O)(=O)c2ccccc2)c(C)c1S(=O)(=O)N1CCC(C)CC1	inconclusive: 79.4 µM [inhibitor, partial curve]
Cc1c(CCC(=O)NCCCn2ccnc2)c(=O)oc2c(C)c3oc4c(c3cc12)CCCC4	inconclusive: 35.5 µM [inhibitor, partial curve]
O=C1N=c2ccccc2=C1c1sc(NS(=O)(=O)c2ccccc2)nc1O	inconclusive: 35.5 µM [inhibitor, single point]
Clc1ccc(CNc2ccccc2NCc2ccc(Cl)nc2)cn1	inconclusive: 12.6 µM [inhibitor, full curve]
CCOc1cccc(=O)c2c(C)n(C)c(C)c12	inconclusive: 17.8 µM [inhibitor, full curve]
C=CCn1cccc(C(=O)Nc2ccc(OC)cc2OC)c1=O	inconclusive: 39.8 µM [inhibitor, full curve]
C=CCn1c(-c2ccc(Cl)cc2)cnc1SC(C)C(N)=O (stereo not given)	inactive
COc1ccccc1-c1ncnn1-c1sc2c(c1C#N)CCCCC2	inconclusive: 28.2 µM [inhibitor, partial curve]
COCCCNC(=O)[C@H]1N2C(=O)c3ccccc3C2SC1(C)C (stereo not given in full)	active: 22.4 µM
Clc1ccc(-c2noc(CSc3nnc(-c4ccncc4)n3-c3ccccc3)n2)cc1	inconclusive: 50.1 µM [inhibitor, partial curve]
COc1cc(OC)cc(C(=O)OCCCOC(=O)c2cc(OC)cc(OC)c2)c1	inactive
COC(=O)[C@H](CCSC)NC(=O)Cn1cnc2c(SC)nc(N)nc21	inconclusive: 89.1 µM [inhibitor, partial curve]
Cc1cc[n+](Cc2ccc([N+](=O)[O-])cc2)cc1	inactive
O=C1CC[C@@H]2CC(N3CCN(c4ccccc4)CC3)C[C@@H]3CCN1[C@H]23 (stereo not given in full)	inactive
O=C(CN1CCN(c2ccccc2)CC1)N1CCc2[nH]c3ccccc3c2C1	inconclusive: 70.8 µM [inhibitor, single point]
O=C(NNC(=O)c1ccc(Br)s1)NC1CCCCC1	inconclusive: 50.1 µM [inhibitor, partial curve]

Compound	Potency
COC(=O)C[C@H]1c2cc(C(F)(F)F)ccc2S(=O)(=O)N1c1ccc(N(C)C)cc1	inconclusive: 50.1 µM [inhibitor, full curve]
Cc1ccc(OCc2nc(C#N)c(NCc3ccco3)o2)cc1	inconclusive: 56.2 µM [inhibitor, partial curve]
CCN(CC)c1ccc(NC(=O)C2CCCN(S(=O)(=O)c3ccc4c(c3)oc(=O)n4C)C2)c(C)c1 (stereo not given)	inconclusive: 10 µM [inhibitor, single point]
Cc1ccc(/C=C/C(=O)Nc2cc(=O)n(C)c(=O)n2C)o1	inconclusive: 44.7 µM [inhibitor, single point]
CN1CCN(/N=C/c2cccc(Cl)c2Cl)CC1	inconclusive: 50.1 µM [inhibitor, partial curve]
CCOC(=O)c1c(S(=O)(=O)N2CCN(c3cc(Cl)ccc3C)CC2)c(C)n(C)c1C	inconclusive: 56.2 µM [inhibitor, partial curve]
COc1cc2nc(C3CCC3)nc(N3CCN(c4ccccc4OC)CC3)c2cc1OC	inconclusive: 44.7 µM [inhibitor, partial curve]
O=C1/C(=C\c2ccc(O)cc2)SC(=S)N1Cc1ccccc1	inconclusive: 39.8 µM [inhibitor, partial curve]
CCCC(=O)Nc1nnc(-c2ccc3c(c2)OCCO3)o1	inconclusive: 20 µM [inhibitor, full curve]
Cc1nc(SCc2nc3ccc(F)cc3[nH]2)c2oc3ccccc3c2n1	inconclusive: 70.8 µM [inhibitor, single point]
COc1ccc(NC(=O)Cn2c(SCc3c(F)cccc3Cl)nc3ccncc32)cc1OC	inconclusive: 70.8 µM [inhibitor, partial curve]
O=C(NCCc1c[nH]c2ccccc12)c1cccc(Br)c1	inconclusive: 5.62 µM [inhibitor, full curve, poor fit]
CC(=O)NC(C)c1cc(F)c2cccnc2c1O (stereo not given)	active: 79.4 µM
CC(C)c1ccc(O)c(NC(=S)NC(=O)c2ccc3c(c2)OCO3)c1	inconclusive: 31.6 µM [inhibitor, full curve]
Nc1cccc(Cl)c1N1CCOCC1	active: 20 µM
CC1CCCC/C1=N\NC(=S)Nc1cccnc1 (stereo not given)	inconclusive: 15.8 µM [inhibitor, full curve]
Cc1cccc(-c2nc(CS(=O)CC(=O)NCc3ccco3)c(C)o2)c1 (stereo not given)	inconclusive: 56.2 µM [inhibitor, partial curve]
CCOc1ccc(OCCSc2ccc(S(=O)(=O)N3CCN(C)CC3)cn2)cc1	inconclusive: 50.1 µM [inhibitor, partial curve]
CN1CCN(c2ccc(-c3nc(-c4ccccc4)no3)cc2[N+](=O)[O-])CC1	inactive
O=C(CN1C(=O)NC2(CCCC2)C1=O)NCc1ccc(Cl)cc1	inactive
Cc1ccc(C(c2c(C)n(C)n(-c3ccccc3)c2=O)c2c(C)n(C)n(-c3ccccc3)c2=O)s1	inconclusive: 56.2 µM [inhibitor, partial curve]
CN(C)c1ccc(NC(=S)c2ccccn2)cc1	active: 11.2 µM
